Assays:
Experiment in all cases: flow cytometry, transfected 293T cells, 2 mM CaCl2
[1] = biological target: T1, rhCDH19(1-43)::FLAG::rhCDH19(44-65)::caCDH19(65-770) (construct S, rh EC1a) (rhesus macaque/dog chimera)
T1 construct: leader (1-43 of the entry) left out

[2] = biological target: T2, rhCDH19(1-43)::FLAG::rhCDH19(44-141)::caCDH19(141-770) (construct R, rh EC1) (rhesus macaque/dog chimera)
T2 construct: leader (1-43 of the entry) left out

[3] = biological target: T3, raCDH19(1-43)::FLAG::raCDH19(44-770) (construct W, Ra EC1-5) (rat)
T3 construct: leader (1-43 of the entry) left out; also called rat Cadherin19
T3 chain: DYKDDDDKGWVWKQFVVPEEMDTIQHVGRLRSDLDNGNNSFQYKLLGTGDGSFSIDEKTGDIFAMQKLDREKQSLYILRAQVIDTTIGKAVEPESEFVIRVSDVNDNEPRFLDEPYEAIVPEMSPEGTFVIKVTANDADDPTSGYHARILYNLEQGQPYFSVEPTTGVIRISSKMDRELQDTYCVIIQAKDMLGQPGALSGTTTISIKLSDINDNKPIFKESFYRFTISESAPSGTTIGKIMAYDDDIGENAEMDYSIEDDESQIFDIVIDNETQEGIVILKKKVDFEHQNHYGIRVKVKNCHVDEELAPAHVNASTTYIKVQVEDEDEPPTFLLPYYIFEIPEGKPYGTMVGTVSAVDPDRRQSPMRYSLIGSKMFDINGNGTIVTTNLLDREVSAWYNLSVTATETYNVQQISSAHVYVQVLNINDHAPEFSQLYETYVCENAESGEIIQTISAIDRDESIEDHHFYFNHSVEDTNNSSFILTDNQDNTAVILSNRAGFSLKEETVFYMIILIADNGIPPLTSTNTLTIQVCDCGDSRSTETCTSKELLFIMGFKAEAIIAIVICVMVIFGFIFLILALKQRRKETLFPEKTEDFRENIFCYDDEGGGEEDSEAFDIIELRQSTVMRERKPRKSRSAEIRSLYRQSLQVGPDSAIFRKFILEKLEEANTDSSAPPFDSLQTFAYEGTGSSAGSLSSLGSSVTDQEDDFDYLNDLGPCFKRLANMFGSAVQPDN

[4] = biological target: T4, huCDH19(1-43)::FLAG::hu(44-141)::ckCDH19(142-776) (construct K, Hu EC1) (human/chicken chimera);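 further: binding of Alexa647-labelled anti-CDH19 antibodies to cells expressing human/chicken CDH19 chimeras, read as cell-bound fluorescence, with mock-transfected cells as controls, n.d. meaning not determined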
T4 construct: leader (1-43 of the entry) left out; also called huCDH19(44-141)::ckCDH19(142-776)

binding result [1]: binds
binding result [2]: binds
binding result [3]: binds
binding result [4]: binds
B1: hu anti-<huCDH19> 16A4.1 (1-474)(T144L) VH::huIgG1z + 16A4.1 (1-235)(G141Q) VL::huKLC (Ab ID 14071) (antibody)
heavy: QVQLQESGPGLAKPSETLSLTCTVSGDSITSYYWSWIRQPPGKGLEWIGYIYYSGSTNYNPSLKSRVTISVDTSKNQFSLKLSSVTAADTAVYYCARDQRRIAAAGTHFYGMDVWGQGTLVTVSS[here human IgG1 constant region without letters]
light: [here about 100 residues without letters][here about 120 residues without letters]
notes: Engineered variant of 16A4; the entries already carry the changes; Bin 5

From patent publication US20220127354A1 (Amgen, published 2022)
